Experimental findings from PubChem BioAssay AID360 (National Center for Advancing Translational Sciences (NCATS), 2006) are described below.

The structures appear in SMILES notation. Screen size: about 48,000 compounds; about 550 (1.1%) were called active. Another 4% or so got no clear call; they are omitted. Cut-off read from the data, not from the text of the source: active = potency below about 15 µM; inconclusive = mostly about 16 µM to 33 µM; inactive = weaker than that. The list shows a part of the results. Bounds are passed on as bounds.
Potency is the fitted concentration of half-maximal effect.

The target of the test is Lysosomal acid glucosylceramidase (Homo sapiens) (UniProt P04062). Kind of test: Glucocerebrosidase.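 Note: the screen sought inhibitors.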 The conditions noted are these: purified enzyme, resorufin glucoside fluorescence (screen aimed at inhibitors), 20 min. Summed up: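 Wild-type enzyme at 0.2 nM final in 50mM citric acid/KH2PO4, 10mM sodium taurocholate, 0.01% tween-20, pH 5.9, with resorufin beta-D-glucopyranoside at 30 uM final. Compounds titrated, 20 min at RT, red fluorescence read; AC50 from titration.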
UniProt P04062, sequence (P04062 whole entry, looked up): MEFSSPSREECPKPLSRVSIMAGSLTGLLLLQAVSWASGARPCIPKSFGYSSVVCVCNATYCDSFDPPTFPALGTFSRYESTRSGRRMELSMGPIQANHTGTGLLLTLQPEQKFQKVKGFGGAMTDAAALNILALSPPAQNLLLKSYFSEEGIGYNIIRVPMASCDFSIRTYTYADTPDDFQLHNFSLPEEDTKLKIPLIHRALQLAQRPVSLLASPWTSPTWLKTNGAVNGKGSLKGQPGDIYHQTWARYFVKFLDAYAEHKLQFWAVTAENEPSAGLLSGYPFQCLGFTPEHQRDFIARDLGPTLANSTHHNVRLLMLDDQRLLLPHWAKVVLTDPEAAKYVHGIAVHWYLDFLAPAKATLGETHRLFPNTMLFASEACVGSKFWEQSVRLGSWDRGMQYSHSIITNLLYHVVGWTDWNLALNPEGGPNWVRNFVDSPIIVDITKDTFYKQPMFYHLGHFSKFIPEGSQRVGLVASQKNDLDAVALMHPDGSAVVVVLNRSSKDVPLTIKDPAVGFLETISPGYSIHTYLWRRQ
`CCOC(=O)C(CC)n1cnc2c(oc3ccccc32)c1=O` (centres undefined): the Potency was inactive: > 76.9 µM.
Then `Cn1c(=O)[nH]c(=O)c2c1nc(N1CCc3ccccc3C1)n2CCSc1nc2ccccc2s1`, with inactive: > 76.9 µM; and `CCC(Oc1ccccc1)C(=O)Nc1nnc(C)s1` (centres undefined), with inactive: > 76.9 µM.
`Nc1nncn1C(=O)c1ccccc1Cl`: the Potency was inactive: > 76.9 µM.
Then `COc1cc(=O)[nH]c(SCc2c(F)c(F)c(F)c(F)c2F)n1`, with inactive: > 76.9 µM; and `CCCC(=O)Nc1ccc2c(c1)C(=O)N(CCC(=O)O)C2=O`, with inactive: > 76.9 µM; and `CCCc1[nH]nc2c1C(c1ccc(OC)cc1OC)C(C#N)=C(N)O2` (centres undefined), with inactive: > 76.9 µM.
Take `COC(=O)c1ccc(Cc2ccc(C(=O)OC)o2)o1`: the Potency was inactive: > 76.9 µM.
With `CC(OC(=O)c1ccco1)C(=O)NCc1cccs1` (centres undefined), the Potency is inactive: > 76.9 µM.
For `COc1ccc(OC)c(-n2c(C)nc3cc(C(=O)O)ccc32)c1`, the Potency was inactive: > 76.9 µM.
As to `Cc1ccc(C(=O)Nc2sc3c(c2C(=O)O)CCCCC3)o1`, the Potency is inactive: > 76.9 µM.
For the compound `CCOc1cccc(-n2nnnc2-c2ccc(OC)cc2)c1`, the Potency was inactive: > 76.9 µM.
As for `O=C(Nc1ccccc1C(F)(F)F)c1cc(-c2cccc(O)c2)on1`, the Potency is inactive: > 76.9 µM.
As to `c1ccc(NC(=NCc2ccco2)c2ccccc2)cc1`, the Potency was inactive: > 76.9 µM.
Then `CCCCOn1c(C)c(C(=O)OCC)c2c3nonc3ccc21`, with inactive: > 76.9 µM; and `O=C(CSc1ncn[nH]1)c1ccco1`, with inactive: > 76.9 µM.
Turning to `Cc1nn(CC(=O)NCc2ccccc2)c(=O)c2ccccc12`, the Potency is inactive: > 76.9 µM.
On to `CCOC(=O)CNC(=O)CSc1nc2cccnc2n1C1CCCCC1`, for which the Potency was inactive: > 76.9 µM.
On to `O=C(NC1CCCCC1)c1nc2c(nnn2Cc2ccccc2Cl)c(=O)[nH]1`, for which the Potency is inactive: > 76.9 µM.
In the case of `COc1cc(Cl)cc(NC(=O)CCN2CCN(C)CC2)c1`, the Potency was inactive: > 76.9 µM.
As for `O=C(Cn1cnc2c(nnn2Cc2ccc(Cl)cc2)c1=O)NCC1CCCO1` (centres undefined), the Potency was inactive: > 76.9 µM.
Then `O=C(CNC(=O)c1ccco1)OCc1c(F)cccc1Cl`, with inactive: > 76.9 µM.
Regarding `C=CCn1c(SCC(=O)Nc2cc(C)nn2-c2ccccc2)nnc1C1CCCCC1`, the Potency is inactive: > 76.9 µM.
As to `CCOc1ccc(-c2n[nH]c(C)c2Oc2ccc(OC)cc2)c(O)c1`, the Potency was inactive: > 76.9 µM.
With `CCN(CC)CCNc1nc2ccccc2n1C`, the Potency was inactive: > 76.9 µM.
Regarding `CCCCNC(=O)c1ccc2c(c1)N(CC)C(=O)CS2`, the Potency was inactive: > 76.9 µM.
For `O=C(c1ccc2c(c1)OCO2)N(CC1CCCO1)C1(C(=O)NC2CCCC2)CCCCC1` (centres undefined) the value was inactive: > 76.9 µM; for `COc1ccc(OC)c(N=c2oc3cc(O)ccc3cc2C(N)=O)c1`, inactive: > 76.9 µM.
As for `CC(=O)NC12CC3CC(C1)CC(C(=O)OCC(=O)c1ccc4c(c1)OCCO4)(C3)C2`, the Potency is inactive: > 76.9 µM.
For `COC(=O)c1ccc(NC(=O)CN(C2CCCCC2)S(C)(=O)=O)cc1` the value was inactive: > 76.9 µM.
As for `O=C(CSc1nc2c(c(=O)n1-c1ccc(Br)cc1)SCC2)Nc1nccs1`, the Potency was inactive: > 76.9 µM.
For the compound `CN(C)C=Nc1nonc1-c1ncn[nH]1`, the Potency was inactive: > 76.9 µM.
On to `O=C(CCN1C(=O)C2C3C=CC(C3)C2C1=O)NCC1CCCO1` (centres undefined), for which the Potency is inactive: > 76.9 µM.
For `CCOc1ccc(-n2c(=O)c3c4c(sc3n(CC(=O)NCc3ccco3)c2=O)CCC4)cc1`, the Potency is inactive: > 76.9 µM.
As to `CN1CCN(c2nc(Nc3cccc(C(F)(F)F)c3)nc(N3CCOCC3)n2)CC1`, the Potency was inactive: > 76.9 µM.
Take `CCOC(=O)c1sc2ccc(S(=O)(=O)N3CCOCC3)cc2c1N`: the Potency is inactive: > 76.9 µM.
As for `CCCN1CCN(C(=O)c2cn(CC(C)C)c(=O)c3cc(OC)c(OC)cc23)CC1`, the Potency is inactive: > 76.9 µM.
Take `COc1ccc(C2CC(C(F)(F)F)n3nc(C(=O)NCCCn4ccnc4)cc3N2)cc1OC` (centres undefined): the Potency was inactive: > 76.9 µM.
As to `N=c1ccn(Cc2ccc(Cl)c(Cl)c2)cc1`, the Potency was inactive: > 76.9 µM.
Then `Cc1c(C)[n+](=O)c(-c2cccs2)c(C)n1[O-]`, with inactive: > 76.9 µM.
Then `CCn1c(=O)n(CC)c2cc(S(=O)(=O)N3CCOCC3)ccc21`, with inactive: > 76.9 µM.
For `CC(=O)N1CCc2cc(S(=O)(=O)NC(CC(C)C)C(=O)Nc3cc(C)ccn3)ccc21` (centres undefined) the value was inactive: > 76.9 µM.
Consider `Cc1cc(S(=O)(=O)NC2CCCCC2)c(C)s1`, for which the Potency is inactive: > 76.9 µM.
As for `CCNc1nc(-c2ccc(Cl)cc2)cs1`, the Potency was inactive: > 76.9 µM.
For `COCCn1c(COc2ccccc2)nnc1SCC(N)=O` the value was inactive: > 76.9 µM; for `CCc1c(C(=O)NCc2cnn(C)c2)csc1C`, inactive: > 76.9 µM.
For `O=C(Cc1ccccc1)CC1(O)C(=O)Nc2ccccc21` (centres undefined) the value was inactive: > 76.9 µM; for `CCOC(=O)Cn1c(=O)oc2cc(S(=O)(=O)Nc3cc(OCC)ccc3OCC)ccc21`, inactive: > 76.9 µM.
Then `COC(=O)c1[nH]c2ccc(F)cc2c1NC(=O)C1=COCCO1`, with inactive: > 76.9 µM.
On to `CCN1C(=Nc2ccc(Cl)cc2)SC/C1=C\C(=O)OC`, for which the Potency is inactive: > 76.9 µM.
For `Cc1ccc(S(=O)(=O)c2n[nH]n3c2nc(=O)c2ccccc23)cc1`, the Potency was inactive: > 76.9 µM.
With `Cc1nc2nc(C)c(CCC(=O)N3CCc4ccccc43)c(C)n2n1`, the Potency is inactive: > 76.9 µM.
Then `CC1CCCCN1C(=O)c1ccccc1NC(=O)c1ccco1` (centres undefined), with inactive: > 76.9 µM.
For the compound `CSc1nc2sc3c(c2c(=O)n1C)CCC(C)C3` (centres undefined), the Potency is inactive: > 76.9 µM.
As for `CCOC(=O)c1sc2nc(C)cc(C)c2c1NC(=O)c1ccco1`, the Potency is inactive: > 76.9 µM.
As for `O=S(=O)(Nc1ccc2c(c1)OCO2)c1ccc(Br)s1`, the Potency is inactive: > 76.9 µM.
`Cc1ccc(-n2nnnc2SCC(=O)N2c3ccccc3NC(=O)C2(C)C)cc1`: the Potency was inactive: > 76.9 µM.
Take `O=C(Cn1ncn2c(cc3ccccc32)c1=O)NCc1ccco1`: the Potency is inactive: > 76.9 µM.
Turning to `O=C(NCCOC(=O)c1ccc(S(=O)(=O)N2CCOCC2)cc1)c1cccnc1`, the Potency is inactive: > 76.9 µM.
